The source gives no read counts; variants with many changes may rest on few reads.

The text below walks through data of the RNAGym collection of RNA variant scans (doi:10.7554/elife.90254).

B1: LINE1-mini (parent)
chain: GGCAGAGCUCAACACAGCGUGGCAAAGUGGCUGUGGCUAGACUGCC

In this data set the parent is B1. The data set is described as follows: self-cleavage, relative activity (ratio to wild type); higher = more cleavage; in vitro, sequencing; the parent is a self-cleaving ribozyme.
For GGCAGAGGUCAACACAUCGUGGCAAAGUGGCUGUGGCUAGACUGCU, the self-cleavage was determined as 0.03.

In the case of GGCUGAGCUAAACACAGCGUGGACAAGUGACUGUGGCUAAACUGCC, the self-cleavage came to 0.03.

As for GGCACAUCUCAACAGGGCGAGGCAAAGUGGCUGUGGCUAGACUGCC, the self-cleavage stood at 0.06.

For the variant GGCAGAGCUCAACACAGCGUGCCAAAGUGGCUGUGGCGAGGCUGCC, the self-cleavage amounted to 0.02.

For the variant AGCAGAGCUCAACACAGCGUGGCCAGGUGGCUGUGGCUAGACUGUC, the self-cleavage amounted to 0.12.

Consider GGCAGCGCCCAACACAGCGUAGUAAAGUGGCUGUGGCUAGAAUGCG, for which the self-cleavage came out at 0.06.

Consider GGCAGAGCUCAACACAGCGAGGCAAAGUGUCUGUGGCUAGACUGCG, for which the self-cleavage stood at 0.12.

Turning to GGAAGAGCACAACACUGCUUGGCAAAGUGGCUGUGGCUAGACUGCC, the self-cleavage came out at 0.08.

As to GGCCGAGCUCAACACGGCGUGGCGAACUGGCUGUGGCUAGACUGCC, the self-cleavage turned out to be 0.04.

Turning to GGCAGAGCUCGACACGGCGUGGCACAGGGGCAGUGGCUAGACUGCC, the self-cleavage worked out at 0.

For the variant GGCAGAGCUCAACACAGCGUGGCAAACAGGGUGUGGCUAUACUGCC, the self-cleavage came to 0.07.

Consider GGCAGAGCUCAACACAGCGUGUAAAAGUUGCUAUGGCUAGACUGCC, for which the self-cleavage is 0.69.

In the case of GGCAUGGCUCAACAUAGCGACGCAAAGUGGCUGUGGCUAGUCUGCC, the self-cleavage amounted to 0.01.

As to GGCAGAGCUCAACACAGCGUUGCAAAGUGGCUGUGGCUAGGCAGCC, the self-cleavage was found to be 0.04.

Consider GGCAUAGCUCAACAUAGUGUGGCAAAGUGGCUGUGGCUAGGCUGCC, for which the self-cleavage stood at 0.01.

As for UGCAGAGCUCAACACAGCGUAUCAAAGUGGCUGUGGCUAGACUGUC, the self-cleavage is 0.16.

In the case of GGCAGAGCUCGACACUGCGUGGCAUAGUGGCUGUGGCUAGACUGCC, the self-cleavage was 0.03.

In the case of GGCAGAAGGCAACACAGUGUGGCAAAGUGGCUGUGGCUAGACUGCC, the self-cleavage was found to be 0.01.

Regarding GGCAAGGUUCAACACCGCGUGACAAAUUGGCUGUGGCUAGACUGCC, the self-cleavage was 0.05.

As for UGGAGAGCUCAACAGAGCGUGGCAAAGUGGCUGUGGCUAGACUGCC, the self-cleavage stood at 0.15.

In the case of GGCAGAGCUCAACACAGCGUGGCAAAGUGGCUGUAGCUAGAGUGGC, the self-cleavage stood at 0.04.

Take GGCAGAGCUCAACACAGCGUUGCAAAUUGGCUGUGGCUAGACAGCC: the self-cleavage was 0.03.

Consider GGUAGAGCUCAACACUGCGUGGCAAAGUGGCUGUGGCUGGACUGCC, for which the self-cleavage came out at 0.1.

Consider GGCAGGGAUCAACACAGCCUGGCAAAGUGGCUGUGGCUAGACUGCC, for which the self-cleavage turned out to be 0.09.

For GGCAGAGCUCAACACAGGGCGGCAAACUGGCUGUGGCUAGACUGCC, the self-cleavage amounted to 0.07.

Regarding GGCAGACCUCAACACAGCGUAGCGAAGUGGCUGUGGCUAGACUGCC, the self-cleavage amounted to 0.27.

On to GGCAGAGCUCAACACUGCGUGGCAAAGUGUCUGUGGCUAGAUUGGC, for which the self-cleavage was 0.03.

For GGCAGAGAUCAACAUAGCGUGGCAAAGUGGCUGUGGUUAGACCACC, the self-cleavage is 0.18.

For GACAGAACUCAACACAGCGUCUCAAAGUCGCUGUGGCUAGACUGAC, the self-cleavage worked out at 0.36.

Turning to GGCAGAGCGCAACACAGCAUGGCAAAGUGGCUGUGGCUAGAAUGCC, the self-cleavage was determined as 0.04.

With GGCAGCGCUCAACACAGCGUGGAAAAGCGGCUGUGGCUAGACUGGC, the self-cleavage stood at 0.49.

For the variant GGCGGAGCUCAACACAGCGUGGCCAAGUGGCUGUGGCUAGACUGUC, the self-cleavage is 0.06.

With GGCAUAGCUCAACACAGCGUGGCAAAGUGGCUGAGGCUUGACUACC, the self-cleavage was found to be 0.02.

For GUCAAAGCUCAACACAGCGUGGCAAAGUGUCUGUGGAUAGAAUGCC, the self-cleavage is 0.03.

Consider AGCAGAGCUCGACACAACCUGGCAAAGUGGCUGUGGCUAGACUGCC, for which the self-cleavage is 0.04.

GGCAGAGCUCAACACAGCGUGACAAAGUGGUUGUGGCUAGCCUGCC: the self-cleavage came to 0.12.

On to GGCAGAGCUCAACAGAGCGUGGCAAAGUGGAUGUGGCUAGACUACC, for which the self-cleavage came to 0.13.

For GGCAGAGCUCAACACAGCCUGGCCAACUGGCUGUGGCUAGACUGCC, the self-cleavage is 0.13.

As to GGCAGAGCUCAACACAGUGUGGCAAAAAGGCGGUGGCUAGACUGCC, the self-cleavage was 0.05.

Take GCAAGAGCUCAACACAGCGUGGCAAAGUGACUGUGGCUAGACUGCC: the self-cleavage turned out to be 0.31.

Consider GGCAGAGCUCAGCACAGCGUGGGAAAGUCGCUGUGGCUAGACUGCC, for which the self-cleavage stood at 0.

As to GGCCGAGAUCAACACAGCGUGGCAGAGUGGCUGUGGCUAGACUACC, the self-cleavage was 0.16.

For the variant GGCAGUGCUCAACACAGCGUGGUAAAGUGGCUGUGGCUAGAGUGAC, the self-cleavage was 0.03.

As to GCCAGAGCUCAACUCAGCGUGGCAAAUUGGCUUUGGCUCGAAUGCC, the self-cleavage turned out to be 0.03.

Regarding GGCAGAGGUCAACACAGCGUGGCAAAGUGGAGGUGGAUAGACUGCC, the self-cleavage is 0.04.

As for GGCAGAGCUAAAAACAGCAUGGCAAAGUGGCUGUUGCUAGACUCCC, the self-cleavage was determined as 0.15.

GGCAGAGCUCAACACACCGUGGAAAAGUGGAUGUGGCUAGACUGCC: the self-cleavage stood at 0.28.

GGCAAAGCUCAACACAGCAUGGCAGAGUGGCUGUGGUUAGACUGCC: the self-cleavage worked out at 0.02.

Take GGCAGAAUUCGACACAUCGUGGCAAAGUUGCUGUGGCUAGACUGCC: the self-cleavage was determined as 0.03.

Consider GGCAGAGCUCAACACAGCGCGCAAAAGUGGCUGCGGUUAGACUGCC, for which the self-cleavage stood at 0.

Turning to GGCAGAGAUGAACACAGCGUGGCAAUGUGGCUGUGGCUAGACUGCC, the self-cleavage turned out to be 0.02.

As to GGCAUAGCUCAACACAGCGUGGGAAAGUGGCUGUGGCUAGACAGCC, the self-cleavage was determined as 0.04.

Turning to GGCAGAGAUCAACACAGCGUGGCAAAGUGGCUUUUGCUAGACUACC, the self-cleavage amounted to 0.34.

Regarding GGCAGAGCUCACCACAGCGUGGCAAAGUGUAUGUGGCUAGACUGCC, the self-cleavage worked out at 0.02.

As to GUCAGAGCUCAACACAGCGUGGCUAAGUGGAUGUAGCUAGACUGCC, the self-cleavage was found to be 0.01.

With GGCAGAGCUCAACACAGCGUGUCUAAGUGGCUGUGGUUAGACUGCC, the self-cleavage amounted to 0.02.
